Measured values: PubChem BioAssay AID1768 (National Center for Advancing Translational Sciences (NCATS), 2009)
Hit rate of the full screen: of about 270,000 compounds, about 620 (0.23%) were called active. Inconclusive means that the source gave no clear call. Such entries were picked first, then a sample of the others. Calls follow the shape of the dose curve; as a rule, active = well fitted inhibition curve with a large enough effect in the polarisation, with a control signal flat (not every such curve was filed as active); inconclusive = small, poorly fitted or top-dose-only effect, or effect the other way, or a change in a side signal; inactive = no such curve, though single readings can be large or run the other way; the % refers to the polarisation. Where the call is inconclusive, the potency comes from a doubtful curve fit. A note “side channel” means that the fit belongs to a control or component signal, not to the main read-out.

biological target: Menin (Homo sapiens) (UniProt O00255); test: qHTS Assay for Inhibitors Targeting the Menin-MLL Interaction in MLL Related Leukemias: Competition With Texas Red Labeled MLL-derived Mutant Peptide; settings: fluorescence polarization; series mostly up to 61.6 µM
UniProt O00255, sequence (O00255 whole entry, looked up): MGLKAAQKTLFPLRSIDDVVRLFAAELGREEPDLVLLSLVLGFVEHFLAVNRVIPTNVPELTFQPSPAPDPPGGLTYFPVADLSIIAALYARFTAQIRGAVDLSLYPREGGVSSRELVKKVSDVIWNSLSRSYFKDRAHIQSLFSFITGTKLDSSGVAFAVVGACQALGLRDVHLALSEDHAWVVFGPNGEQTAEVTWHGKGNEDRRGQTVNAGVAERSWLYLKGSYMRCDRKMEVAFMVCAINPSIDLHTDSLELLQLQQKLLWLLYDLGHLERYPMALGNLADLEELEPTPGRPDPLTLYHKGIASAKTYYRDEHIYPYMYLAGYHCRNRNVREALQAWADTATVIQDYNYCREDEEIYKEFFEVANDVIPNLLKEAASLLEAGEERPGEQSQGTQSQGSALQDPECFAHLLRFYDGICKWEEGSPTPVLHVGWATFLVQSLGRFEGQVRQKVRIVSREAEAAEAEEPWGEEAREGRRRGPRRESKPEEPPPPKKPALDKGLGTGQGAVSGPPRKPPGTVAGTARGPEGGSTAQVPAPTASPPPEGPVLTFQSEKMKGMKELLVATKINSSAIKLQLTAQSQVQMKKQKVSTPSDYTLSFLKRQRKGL
Potency is read from the fitted curve at half-maximal effect; tags tell the direction and shape of the fitted curve or compound fluorescence and quenching.

Structure (SMILES)	Potency
CCOC(=O)C1(CCCc2ccccc2)CCN(S(=O)(=O)N(C)C)CC1	inconclusive: 28.2 µM [fluorescent, side channel, partial curve]
Cc1nnc(NC(=O)c2sc3nc(-c4cccs4)cc(C(F)(F)F)c3c2N)s1	inconclusive: 14.1 µM [quencher, side channel, partial curve]
C=CCNC(=O)c1ccc(Sc2ccccc2)c([N+](=O)[O-])c1	inconclusive: 35.5 µM [quencher, side channel, single point]
C=CCC(C)(NCc1ccccc1)C(=O)OCC (stereo unspecified)	inactive
O=C(NC(=S)N1CCN(c2ccc([N+](=O)[O-])cc2)CC1)c1ccccc1Cl	inconclusive: 10 µM [quencher, side channel, partial curve]
CCOC(=O)COc1cc(-n2c(=S)[nH]c3cc(OC)c(OC)cc3c2=O)c(Cl)cc1Cl	inconclusive: 3.16 µM [quencher, side channel, full curve]
O=S(=O)(c1ccc(-c2nnc(SCc3nnc(-c4ccccc4)o3)o2)cc1)N1CCCC1	inconclusive: 17.8 µM [inhibitor, partial curve]
CCOC(=O)c1c(NC(=O)CSc2nnc(C)s2)sc2c1CCCCC2	inconclusive: 1.58 µM [fluorescent, side channel, full curve]
CC(C)c1ccc(/C=C/C(=O)Nc2nc3ccc([N+](=O)[O-])cc3s2)cc1	inconclusive: 3.98 µM [quencher, side channel, full curve, poor fit]
CNc1cccc2c1C(=O)c1ccccc1C2=O	inactive
CCOc1ccccc1CN1CCN(C/C=C/c2ccc(OC)cc2)CC1CCO (stereo unspecified)	inconclusive: 2.51 µM [fluorescent, side channel, full curve]
COc1ccc(C(=O)Nc2ccccc2C(=O)N/N=C/c2cccc3ccccc23)cc1	active: 28.2 µM
O=C(NC1C=CS(=O)(=O)C1)c1ccccc1 (stereo unspecified)	inconclusive: 17.8 µM [inhibitor, partial curve]
CN(C)c1ccc(C(CNC(=O)c2ccc(C#N)cc2)c2c[nH]c3ccccc23)cc1 (stereo unspecified)	inconclusive: 7.94 µM [quencher, side channel, partial curve]
CC(=O)Oc1ccccc1/C=C/c1ccc2ccccc2[n+]1C	inconclusive: 25.1 µM [inhibitor, single point]
Cc1cccc(NC(=O)NNC(=O)COc2ccc([N+](=O)[O-])cc2)c1C	inconclusive: 7.08 µM [fluorescent, single point]
O=S(=O)(Nc1ccc(-n2cccc2)cc1)c1ccc(Cl)cc1Cl	inconclusive: 28.2 µM [quencher, side channel, single point]
COC(=O)Nc1ccc(S(=O)(=O)N2c3ccccc3CCC2C)cc1 (stereo unspecified)	inconclusive: 17.8 µM [quencher, side channel, single point]

Structure (SMILES)	Potency
Cc1cc(Cl)ccc1NC(=O)CCC(=O)N/N=C/c1cc([N+](=O)[O-])ccc1O	inconclusive: 14.1 µM [quencher, side channel, partial curve]
Cc1cccc(N2CCN(C(=O)CCCn3c(=S)[nH]c4cc5c(cc4c3=O)OCO5)CC2)c1C	inconclusive: 2.82 µM [inhibitor, partial curve]
Cc1ccc(CNC(=O)CCS(=O)(=O)c2ccc(Br)cc2)cc1	inactive
C=CCNc1cc(N2CCCC2)ccc1[N+](=O)[O-]	inconclusive: 12.6 µM [inhibitor, partial curve]
CCOC(=O)N1CCC(c2cc(=O)n(-c3ccccc3)[nH]2)CC1	inconclusive: 12.6 µM [quencher, side channel, partial curve]
COc1ncnc2c1N=C1CC(C)(C)CC(N)=C1S2	inconclusive: 39.8 µM [inhibitor, single point]
CCOc1cc(/C=C(\C#N)C(=O)Nc2ccccc2C(=O)O)ccc1OC(=O)c1ccc(C)cc1	inconclusive: 8.91 µM [quencher, side channel, partial curve]
CCCCOC(=O)c1ccc(NC(=O)Nc2ccc(OC)c(OC)c2)cc1	inconclusive: 10 µM [quencher, side channel, partial curve]
Cc1onc(-c2ccccc2)c1C(=O)N/N=C/c1ccc([N+](=O)[O-])s1	inconclusive: 22.4 µM [quencher, side channel, single point]
COc1ccccc1Nc1nc(-c2sc(NC(=O)c3ccccc3)nc2C)cs1	inconclusive: 14.1 µM [quencher, partial curve]
O=C(Nc1cccc(C(F)(F)F)c1)c1cccc(NS(=O)(=O)c2ccc(Br)c(C(=O)O)c2)c1	inconclusive: 20 µM [quencher, side channel, single point]
Cc1cccc(C2=NN(c3ccccc3)[C@@H](C(=O)N3CCOC3=O)[C@@H]2C)c1	inconclusive: 12.6 µM [quencher, side channel, partial curve]
Cc1ccc(C(=O)NCCCNC(=O)c2ccccn2)cc1	inconclusive: 25.1 µM [inhibitor, single point]
CC(=O)c1sc(NS(=O)(=O)c2ccc(C)cc2)nc1-c1ccccc1	inconclusive: 15.8 µM [quencher, side channel, single point]
Oc1ccc(/C=N/Nc2ccc(C(F)(F)F)cn2)cc1O	inconclusive: 20 µM [quencher, side channel, partial curve]
Cc1onc(-c2c(F)cccc2Cl)c1C(=O)NC1C(=O)N2C1SC(C)(C)C2C(=O)O (stereo unspecified)	inactive
O=C(CN1CCCC1)N1CCCc2c1c(=O)oc1ccc(OCc3ccccc3)cc21	inconclusive: 2.24 µM [fluorescent, side channel, full curve, poor fit]
CSc1ccc(CCNC(=O)Cn2ncc3c([nH]c4ccccc43)c2=O)cc1	inconclusive: 25.1 µM [fluorescent, side channel, partial curve]
